Results published in PubChem BioAssay AID686970 (National Center for Advancing Translational Sciences (NCATS), 2013).
The campaign covered roughly 360,000 compounds. About 6,000 (1.7%) were called active. Inconclusive results, whose numbers are uncertain, are shown with a selection of clear calls. The call rests on the fitted dose curve; in most records, active means well fitted cell-killing curve with a large enough effect; inconclusive means small, poorly fitted or top-dose-only effect, or effect the other way; inactive means flat fitted curve, though single readings scatter. Potencies of inconclusive entries are left out as doubtful fits.

Test: qHTS for induction of synthetic lethality in tumor cells producing 2HG: qHTS for the HT-1080-NT fibrosarcoma cell line;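 further: NT is the 2HG producing partner of a matched IDH1 knockdown line; nearly all actives have a fitted effect of over 55% in size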;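 on activity, negative = less viability: 0% = DMSO-treated cells and -100% = media-only wells without cells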
Settings: HT-1080-NT fibrosarcoma viability, CellTiter-Glo ATP luminescence, 48 h; activity, negative = less viability: at 46.1 µM (top of the series) unless noted
Procedure, shortened: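 Toxicity toward the 2HG-producing NT line was scored as %Activity, normalised to DMSO and no-cell wells, from CellTiter-Glo luminescence after 48 hours' treatment.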
Potency means the concentration at half of the fitted maximal effect; tags describe the fitted curve by direction and shape.

Compound | activity, negative = less viability | Potency
COc1ccccc1-c1ccc(Nc2cccc(C(C)=O)c2)nn1 | inactive: -2.31% | 
COc1cc(C2c3c(-c4ccccc4O)n[nH]c3C(=O)N2Cc2ccco2)cc(OC)c1OC (stereo unspecified) | inactive: 0.552% | 
O=[N+]([O-])c1cccc(/C=N/Nc2nccnc2Cl)c1 |  | inconclusive [cytotoxic, single point]
Cc1ccccc1NC(=O)Cc1nc(COC(=O)CSc2ccccc2)cs1 | inactive: 0.412% | 
Oc1ccccc1/C=N/NC(=S)NC1CC2C=CC1C2 (stereo unspecified) |  | inconclusive [cytotoxic, single point]
Cc1ccc(NC(=O)c2cc(-c3cccs3)nc3ccccc23)nc1 |  | inconclusive [cytotoxic, single point]
Cc1[nH]nc(-c2ccc(OCc3cnn(-c4ccccc4)c3)cc2O)c1Oc1ccc(Cl)cc1 |  | inconclusive [cytotoxic, single point]
C=CCNC(=S)/C(=C(\[O-])c1ccc(Cl)cc1)[n+]1ccccc1 | inactive: 2.32% | 
COc1ccc2c(c1)C(O)C(CO)C(C(=O)O)C2 (stereo unspecified) | inactive: 4.4% | 
Cc1cc(C)c(NS(=O)(=O)c2cccc3cccnc23)c(C)c1 | inactive: -4.64% | 
O=C(N/N=C/C=C\c1ccccc1[N+](=O)[O-])c1ccccn1 |  | inconclusive [rising, partial curve]
NC(=O)c1cc(S(=O)(=O)N2CCOCC2)cs1 | inactive: 3.35% | 
CCC1CCCCN1S(=O)(=O)c1ccc(C(=O)N(CCCN(C)C)c2nc3cc4c(cc3s2)OCO4)cc1 (stereo unspecified) |  | inconclusive [cytotoxic, single point]
COC1(OC)C(/C=C/c2ccc(C)cc2)C(C#N)(C#N)C1(OC)OC (stereo unspecified) | inconclusive: -21.5% [cytotoxic] | 
CCn1cnc2cc(NCc3ccc(C)cc3)ccc21 | inactive: -1.02% | 
Cn1cnc(S(=O)(=O)N2CCN(C(c3ccc(F)cc3)c3ccc(F)cc3)CC2)c1 |  | inconclusive [cytotoxic, single point]
CCc1ccc(OCC(=O)Nc2ccc3oc(=O)ccc3c2)cc1 | inactive: -2.37% | 
CCCCn1c(N)c(N(CCOC)C(=O)CCN2C(=O)C3CC=CCC3C2=O)c(=O)[nH]c1=O (stereo unspecified) | inactive: 8.3% | 
CCCCC[n+]1ccn(C2=C([O-])c3ccccc3C(=O)/C2=N\S(=O)(=O)c2ccccc2)c1 |  | inconclusive [cytotoxic, single point]
COc1ccc(C(=O)NNC(=S)NC(=O)c2ccc(Cl)cc2)cc1 |  | inconclusive [cytotoxic, partial curve]
COc1ccc(/C=C2\SC(=S)N(CCC(=O)Nc3cccc(O)c3)C2=O)cc1 |  | inconclusive [cytotoxic, single point]
N#CC1=C(N)Oc2cc(N)ccc2C1c1cccc(F)c1 (stereo unspecified) |  | active: 2.91 µM
O=C(CN1CCN(Cc2ccccc2)CC1)N/N=C/c1ccc(Br)s1 | inconclusive: -36.3% [cytotoxic] | 
COc1cc(/C=C/C(=O)NC2CCCCC2)cc(OC)c1OC | inactive: 3.42% | 
C/C(=N\NC(=O)Cn1cc([N+](=O)[O-])cn1)c1ccco1 | inactive: 5.64% | 
CSc1ccc(CN2CCN(Cc3ccc([N+](=O)[O-])cc3)CC2)cc1 |  | inconclusive [cytotoxic, full curve]

Compound | activity, negative = less viability | Potency
Cc1c(Br)cccc1NC(=O)C1(C)CCN1C(C)C (stereo unspecified) | inactive: -2.32% | 
CCC(Sc1nc2cc(OC)c(OC)cc2c(=O)n1Cc1ccco1)C(=O)NCCOC (stereo unspecified) | inactive: -0.269% | 
CC(C)NC(=O)c1ccc2c3n(nc2c1)-c1ccccc1CO3 |  | inconclusive [cytotoxic, single point]
COc1ccc(S(=O)(=O)N2CCOCC2)cc1NC(=O)Cc1ccccc1Cl | inactive: -1.75% | 
Cc1cc(C(=O)N/N=C/c2ccc(O)c(O)c2O)c(C)n1-c1ccccc1 |  | inconclusive [cytotoxic, partial curve]
Cc1cnc(C(=O)OCC(=O)Nc2cc(-c3ccccc3)nn2-c2ccccc2)cn1 | inactive: 10% | 
O=c1c2ccccc2nc2n1C(CBr)CN2 (stereo unspecified) |  | inconclusive [rising, single point]
O=C1NC(=S)S/C1=C\C=C\c1ccc([N+](=O)[O-])o1 |  | active: 5.8 µM
O=C(COC(=O)c1ccc(Cl)nc1)NCc1ccco1 |  | inconclusive [rising, single point]
Clc1ccc(NC2(c3nnnn3C3CCCCC3)CCCCC2)cc1 | inactive: -14.1% | 
OC(COCC(F)(F)C(F)(F)C(F)(F)C(F)F)Cn1c2ccc(Cl)cc2c2cc(Cl)ccc21 (stereo unspecified) |  | inconclusive [cytotoxic, single point]
CCOCCCNC(=O)c1cn(CC)c2ccc(S(=O)(=O)N(C)C3CCCCC3)cc2c1=O | inconclusive: -1.25% | 
CCOC(=O)c1c(NC(=O)C[n+]2ccc(N(C)C)cc2)sc(C)c1C | inactive: 0.0697% | 
Cc1cc(C)n2ncc(/C(N)=N/OC(=O)Nc3ccc(Cl)cc3)c2n1 | inactive: -10.5% | 
Cc1cccc(C(C)C)c1NC(=O)C1CCN(S(=O)(=O)c2ccccc2)CC1 |  | inconclusive [cytotoxic, single point]
COc1ccc(NC(=O)CSc2nc(-c3ccncc3)nn2CC(=O)N2CCCC2)cc1 | inactive: -4.25% | 
COc1ccc2c(c1)C(C)=CC(C)(C)N2S(=O)(=O)c1ccc(Br)cc1 |  | active: 3.26 µM
Cc1ccc(NC(=O)C(C)NS(=O)(=O)c2ccc(F)cc2)cc1C (stereo unspecified) | inactive: 7.35% | 
CC(C)Cn1c(Cc2ccccc2)n[nH]c1=S |  | inconclusive [cytotoxic, single point]
COc1cc2ccccc2cc1C(=O)OCC(=O)c1c(N)n(C)c(=O)n(C)c1=O | inactive: 3.49% | 
CC(=O)Nc1ccc(Nc2nc(-c3sc(C)nc3C)cs2)cc1 | inactive: -15.9% | 
CC1CCN(c2ccc(/C=C(\C#N)c3nn(-c4ccccc4)c(N)c3C#N)cc2[N+](=O)[O-])CC1 |  | inconclusive [cytotoxic, single point]
COc1ccc(Br)cc1[C@H]1[C@@H]2C=CCC[C@@]2(C)C(=O)N1Cc1ccccc1 |  | inconclusive [cytotoxic, single point]
Cc1ccc(OCc2ccc(C(=O)N3CCOCC3)cc2)cc1C |  | inconclusive [cytotoxic, single point]
O=C(C(O)c1ccc(Br)cc1)N1CCC(Nc2ccc3[nH]ncc3c2)CC1 (stereo unspecified) | inactive: -23.6% | 
CSc1nsc(SC)c1NC(=O)OCCc1ccccn1 | inactive: 0.345% | 

Compound | activity, negative = less viability | Potency
COCCN(C(=S)Nc1cccc(C)c1)C(C)c1cccs1 (stereo unspecified) | inactive: 2.88% | 
COc1cccc2sc(NC(=O)c3ccc(S(=O)(=O)N4CCOCC4)cc3)nc12 |  | inconclusive [cytotoxic, single point]
CNC(=S)N(CCCN(C)C)Cc1cc2cc3c(cc2[nH]c1=O)OCCO3 | inactive: -0.465% | 
CNC(=S)N(CCCn1ccnc1)Cc1c(F)cccc1Cl | inactive: -4.8% | 
Cc1cccc(NC(=O)c2nc[nH]c2C(=O)N[C@@H](CC(C)C)C(=O)OC(C)(C)C)c1 |  | inconclusive [cytotoxic, single point]
COc1ccc(-c2noc(-c3cccc(Cl)c3)n2)cc1OC |  | inconclusive [rising, partial curve, poor fit]
Nc1c2c(=O)oc(-c3ccccc3)cc2nn1-c1ccccc1 |  | inconclusive [cytotoxic, single point]
Cc1nn(-c2ccccc2)c2c1C1(C(=O)Nc3ccccc31)N1C(=N2)Sc2ccccc21 (stereo unspecified) |  | inconclusive [cytotoxic, single point]
CCOC(=O)Nc1ccc(C(=O)/C=C/c2ccccc2)cc1 |  | inconclusive [cytotoxic, single point]
CCOc1ccc(NC(=O)Nc2ccc(Cc3ccncc3)cc2)cc1 | inconclusive: -1.21% [cytotoxic] | 
CN(C)CCCN(C(=O)c1ccc(C(=O)c2ccccc2)cc1)c1nc2cc3c(cc2s1)OCO3 |  | inconclusive [cytotoxic, single point]
Cc1cc(C)nc(Nc2nc(C(N)Cc3ccc(F)cc3)cs2)n1 (stereo unspecified) |  | inconclusive [cytotoxic, single point]
Cc1ccc2c(=O)n3c(nc2c1)C(Cc1ccc(O)cc1)NC(=O)c1cccnc1-3 (stereo unspecified) | inactive: -1.23% | 
O=C(Nc1ccc(Cl)cc1C(=O)Nc1ccncc1)c1ccco1 |  | inconclusive [cytotoxic, single point]
CCOc1ccc(CNC(=O)CCS(=O)(=O)c2ccc3c(c2)NC(=O)CO3)cc1OC |  | inconclusive [rising, single point]
CCOC(=O)c1c(NC(=O)CCl)sc(CN(C)C)c1-c1ccccc1 |  | inconclusive [cytotoxic, single point]
Cc1cccn2c(=O)c3cc(C(=O)NCCC4=CCCCC4)n(C)c3nc12 | inactive: 9.41% | 
Cn1c(-c2ccco2)nc2cc3ccccc3cc21 |  | inconclusive [cytotoxic, single point]
CC(Oc1ccc(Cl)cc1)C(=O)N1CCN(C(=O)c2ccco2)CC1 (stereo unspecified) | inactive: -1.29% | 
CCOCC(=O)Nc1c(C(=O)Nc2ccc3c(c2)OCCO3)oc2ccccc12 |  | inconclusive [cytotoxic, single point]
CCOC(=O)C1(Cc2ccccc2)CCCN(S(=O)(=O)N(C)C)C1 (stereo unspecified) | inconclusive: 31.4% | 
COc1ccc(C2NC(=O)NC3=C2CCc2ccccc23)cc1 (stereo unspecified) |  | active: 14.6 µM
CCCCc1c(-c2ccccc2OC)ncn1CCc1ccc(Cl)cc1 |  | inconclusive [cytotoxic, single point]
Cc1ccccc1NC(=O)c1ccc(NS(=O)(=O)c2cc(C(C)(C)C)cc(C)c2C)cc1 |  | inconclusive [cytotoxic, partial curve]
